The results in this text go back to publication PMC9911399, “Two distinct binding modes provide the RNA-binding protein RbFox with extraordinary sequence specificity”.

Changes are numbered by the printed parent chain; changes in the protein carry UniProt numbers. Some of the results follow.

First the molecules themselves.
T1: RBFOX1 RRM RbFoxmut (Fox-RRM*) (Homo sapiens, UniProt Q9NWB1 109-208, R118D;E147R;N151S;E152T)
T1 sequence: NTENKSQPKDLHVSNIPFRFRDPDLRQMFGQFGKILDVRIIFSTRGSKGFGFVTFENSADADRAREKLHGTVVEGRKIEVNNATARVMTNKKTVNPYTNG

B1: ACCCGGA (DNA:RNA)
RNA: GGGAGACCGGAAUUCAGAUUGUCCACCCGGAUUAAAUCCCGUCGUAGCCACCA
DNA 1: CAATCTGAATTCCGGTCTCCC
DNA 2: TGGTGGCTACGACGGGATT
B2: UGAUAGG (DNA:RNA)
RNA: B1 RNA with A25U, C26G, C27A, C28U, G29A, A31G
DNA 1: CAATCTGAATTCCGGTCTCCC
DNA 2: TGGTGGCTACGACGGGATT
B3: AGGUACC (DNA:RNA)
RNA: B1 RNA with C26G, C27G, C28U, G29A, G30C, A31C
DNA 1: CAATCTGAATTCCGGTCTCCC
DNA 2: TGGTGGCTACGACGGGATT
B4: AGUUUCC (DNA:RNA)
RNA: B1 RNA with C26G, C27U, C28U, G29U, G30C, A31C
DNA 1: CAATCTGAATTCCGGTCTCCC
DNA 2: TGGTGGCTACGACGGGATT
B5: CCCGCUC (DNA:RNA)
RNA: B1 RNA with A25C, C28G, G29C, G30U, A31C
DNA 1: CAATCTGAATTCCGGTCTCCC
DNA 2: TGGTGGCTACGACGGGATT
B6: GUGACGG (DNA:RNA)
RNA: B1 RNA with A25G, C26U, C27G, C28A, G29C, A31G
DNA 1: CAATCTGAATTCCGGTCTCCC
DNA 2: TGGTGGCTACGACGGGATT
B7: GACAAUC (DNA:RNA)
RNA: B1 RNA with A25G, C26A, C28A, G29A, G30U, A31C
DNA 1: CAATCTGAATTCCGGTCTCCC
DNA 2: TGGTGGCTACGACGGGATT
B8: GACGCAU (DNA:RNA)
RNA: B1 RNA with A25G, C26A, C28G, G29C, G30A, A31U
DNA 1: CAATCTGAATTCCGGTCTCCC
DNA 2: TGGTGGCTACGACGGGATT
B9: GCGUUGU (DNA:RNA)
RNA: B1 RNA with A25G, C27G, C28U, G29U, A31U
DNA 1: CAATCTGAATTCCGGTCTCCC
DNA 2: TGGTGGCTACGACGGGATT
B10: AAGUGGG (DNA:RNA)
RNA: B1 RNA with C26A, C27G, C28U, A31G
DNA 1: CAATCTGAATTCCGGTCTCCC
DNA 2: TGGTGGCTACGACGGGATT
B11: UAAACCU (DNA:RNA)
RNA: GGGAGACCGGAAUUCAGAUUGUCCUAAACCUUUAAAUCCCGUCGUAGCCACCA
DNA 1: CAATCTGAATTCCGGTCTCCC
DNA 2: TGGTGGCTACGACGGGATT
B12: CGUGGCA (DNA:RNA)
RNA: B1 RNA with A25C, C26G, C27U, C28G, G30C
DNA 1: CAATCTGAATTCCGGTCTCCC
DNA 2: TGGTGGCTACGACGGGATT
B13: UACGCGC (DNA:RNA)
RNA: B11 RNA with A27C, A28G, C30G, U31C
DNA 1: CAATCTGAATTCCGGTCTCCC
DNA 2: TGGTGGCTACGACGGGATT
B14: GUCGAUA (DNA:RNA)
RNA: B1 RNA with A25G, C26U, C28G, G29A, G30U
DNA 1: CAATCTGAATTCCGGTCTCCC
DNA 2: TGGTGGCTACGACGGGATT
B15: AUAGAUU (DNA:RNA)
RNA: B11 RNA with U25A, A26U, A28G, C29A, C30U
DNA 1: CAATCTGAATTCCGGTCTCCC
DNA 2: TGGTGGCTACGACGGGATT
B16: AGAGUAG (DNA:RNA)
RNA: B1 RNA with C26G, C27A, C28G, G29U, G30A, A31G
DNA 1: CAATCTGAATTCCGGTCTCCC
DNA 2: TGGTGGCTACGACGGGATT
B17: UUGUACG (DNA:RNA)
RNA: B11 RNA with A26U, A27G, A28U, C29A, U31G
DNA 1: CAATCTGAATTCCGGTCTCCC
DNA 2: TGGTGGCTACGACGGGATT
B18: AGAUUUG (DNA:RNA)
RNA: B1 RNA with C26G, C27A, C28U, G29U, G30U, A31G
DNA 1: CAATCTGAATTCCGGTCTCCC
DNA 2: TGGTGGCTACGACGGGATT
B19: ACCCCUA (DNA:RNA)
RNA: B1 RNA with G29C, G30U
DNA 1: CAATCTGAATTCCGGTCTCCC
DNA 2: TGGTGGCTACGACGGGATT
B20: GCACUAA (DNA:RNA)
RNA: B1 RNA with A25G, C27A, G29U, G30A
DNA 1: CAATCTGAATTCCGGTCTCCC
DNA 2: TGGTGGCTACGACGGGATT
B21: GCGGAUU (DNA:RNA)
RNA: B1 RNA with A25G, C27G, C28G, G29A, G30U, A31U
DNA 1: CAATCTGAATTCCGGTCTCCC
DNA 2: TGGTGGCTACGACGGGATT
B22: CUACGAA (DNA:RNA)
RNA: B1 RNA with A25C, C26U, C27A, G30A
DNA 1: CAATCTGAATTCCGGTCTCCC
DNA 2: TGGTGGCTACGACGGGATT
B23: GCCAACA (DNA:RNA)
RNA: B1 RNA with A25G, C28A, G29A, G30C
DNA 1: CAATCTGAATTCCGGTCTCCC
DNA 2: TGGTGGCTACGACGGGATT
B24: CGACCUC (DNA:RNA)
RNA: B11 RNA with U25C, A26G, A28C, C30U, U31C
DNA 1: CAATCTGAATTCCGGTCTCCC
DNA 2: TGGTGGCTACGACGGGATT
B25: GAGGUUU (DNA:RNA)
RNA: B11 RNA with U25G, A27G, A28G, C29U, C30U
DNA 1: CAATCTGAATTCCGGTCTCCC
DNA 2: TGGTGGCTACGACGGGATT
B26: CUCAUAA (DNA:RNA)
RNA: B1 RNA with A25C, C26U, C28A, G29U, G30A
DNA 1: CAATCTGAATTCCGGTCTCCC
DNA 2: TGGTGGCTACGACGGGATT
B27: ACGUGCC (DNA:RNA)
RNA: B1 RNA with C27G, C28U, G30C, A31C
DNA 1: CAATCTGAATTCCGGTCTCCC
DNA 2: TGGTGGCTACGACGGGATT
B28: AAUCGGA (DNA:RNA)
RNA: B1 RNA with C26A, C27U
DNA 1: CAATCTGAATTCCGGTCTCCC
DNA 2: TGGTGGCTACGACGGGATT
B29: GCACCCG (DNA:RNA)
RNA: B11 RNA with U25G, A26C, A28C, U31G
DNA 1: CAATCTGAATTCCGGTCTCCC
DNA 2: TGGTGGCTACGACGGGATT
B30: CCAUAAG (DNA:RNA)
RNA: B1 RNA with A25C, C27A, C28U, G29A, G30A, A31G
DNA 1: CAATCTGAATTCCGGTCTCCC
DNA 2: TGGTGGCTACGACGGGATT
B31: GACAGCG (DNA:RNA)
RNA: B11 RNA with U25G, A27C, C29G, U31G
DNA 1: CAATCTGAATTCCGGTCTCCC
DNA 2: TGGTGGCTACGACGGGATT

For the experiment, the target named is T1, RBFOX1 RRM RbFoxmut (Fox-RRM*). Description: EMSA; HiTS-Eq, 1 nM pool, 10 min; buffer printed only for the single-RNA assays: 10 mM Tris pH 7.5, 150 mM NaCl, 3.4 mM EDTA, 0.001% NP-40, 30 C. To be noted: tags: His6 N-terminal (pET28a); label: 5' 32P. Put shortly: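 These values rest on relative association constants, computed from read-count changes of each RNA species versus the control reaction and normalised to the cognate motif. Reads came from free RNA recovered by 8% native PAGE after purified RbFox RRM (wild type or mutant) at increasing concentrations was equilibrated for 10 min in 50 µL with 1 nM of a 5′-radiolabelled pool with 7 randomized nucleotides and DNA-annealed flanks.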
For B1, the binding signal is 0.0844 KA relative to UGCAUGU.
In the case of B2 it was 0.0672 KA relative to UGCAUGU.
For the molecule B3, the binding signal was 0.0954 KA relative to UGCAUGU.
As to B4, the binding signal is 0.0802 KA relative to UGCAUGU.
Then B5, with 0.0841 KA relative to UGCAUGU.
Turning to B6, the binding signal was 0.0828 KA relative to UGCAUGU.
As to B7, the binding signal is 0.0331 KA relative to UGCAUGU.
In the case of B8 it was 0.122 KA relative to UGCAUGU; in that of B9, 0.149 KA relative to UGCAUGU; in that of B10, 0.0945 KA relative to UGCAUGU.
Then B11, with 0.051 KA relative to UGCAUGU; and B12, with 0.156 KA relative to UGCAUGU; and B13, with 0.108 KA relative to UGCAUGU.
B14: the binding signal is 0.127 KA relative to UGCAUGU.
Consider B15, for which the binding signal is 0.106 KA relative to UGCAUGU.
Turning to B16, the binding signal is 0.175 KA relative to UGCAUGU.
In the case of B17 it was 0.261 KA relative to UGCAUGU.
Consider B18, for which the binding signal was 0.0724 KA relative to UGCAUGU.
For the molecule B19, the binding signal was 0.0759 KA relative to UGCAUGU.
For the molecule B20, the binding signal was 0.105 KA relative to UGCAUGU.
In the case of B21 it was 0.092 KA relative to UGCAUGU; in that of B22, 0.105 KA relative to UGCAUGU; in that of B23, 0.0733 KA relative to UGCAUGU.
Regarding B24, the binding signal was 0.0473 KA relative to UGCAUGU.
Turning to B25, the binding signal is 0.0889 KA relative to UGCAUGU.
As for B26, the binding signal was 0.106 KA relative to UGCAUGU.
Then B27, with 0.275 KA relative to UGCAUGU.
In the case of B28, the binding signal is 0.0605 KA relative to UGCAUGU.
In the case of B29, the binding signal is 0.0882 KA relative to UGCAUGU.
Regarding B30, the binding signal is 0.119 KA relative to UGCAUGU.
As for B31, the binding signal is 0.0771 KA relative to UGCAUGU.
